{"source": "PubChem BioAssay AID1347417", "about": "(National Center for Advancing Translational Sciences (NCATS), 2020)", "note": "The campaign covered roughly 120,000 compounds. About 5,300 (4.4%) were called active. The inconclusive results got no clear call from the source; some entries with a clear call stand among them for comparison. Calls follow the shape of the dose curve; as a rule, active = well fitted inhibition curve with a large enough effect; inconclusive = small, poorly fitted or top-dose-only effect; inactive = no such curve, though single readings can be large or run the other way. Potencies beside an inconclusive call are fits to weak or partial responses and may not hold up. Potency is read from the fitted curve at half-maximal effect; tags tell the direction and shape of the fitted curve."}
{"assay": "qHTS Primary assay for Inhibitors of Plasmodium falciparum Dd2 growth in vitro; also: nearly all actives have a fitted effect of over 65% in size;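 as to activity, negative = inhibition: plate controls were DMSO vehicle for no effect and reference drug for full effect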", "conditions": "P. falciparum Dd2 growth, SYBR Green, 72 h; activity, negative = inhibition: at 28.9 µM (top of the series) unless noted; series mostly up to 28.9 µM", "procedure,_shortened": "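Infected erythrocytes (Dd2, 0.3% parasitemia, 2.5% hematocrit final) are added to compound in RPMI-1640/Albumax II medium, grown 72 h at 37C in low oxygen, then lysed with saponin/Triton-X containing SYBR Green and read by fluorescence.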"}
{"smiles": "O=C(NC1CCN(Cc2ccccc2)CC1)c1ccc(Cn2c(=O)c3ccccc3n(Cc3cccc(F)c3)c2=O)cc1", "Potency": "active: 7.94 µM"}
{"smiles": "NCCCC(=O)N1CCC2(CC1)CN(C(=O)Cc1ccccc1)CCO2", "Potency": "inactive"}
{"smiles": "O=C(NCCN1CCOC1=O)c1cn(CCC2CCCCN2)nn1", "note": "(stereo unspecified)", "Potency": "inactive"}
{"smiles": "COc1ccc([C@H]2C[C@@H](O)[C@@H](O)[C@@H]2NCC(C)C)cc1", "Potency": "inactive"}
{"smiles": "Cc1ccc(C2Cn3nnc(C(=O)N4CCN(C(=O)Cc5cccs5)CC4)c3CO2)cc1", "note": "(stereo unspecified)", "Potency": "inconclusive: 20 µM [inhibitor, partial curve, poor fit]"}
{"smiles": "CCCN(CC1CCOC1)S(=O)(=O)c1ccc(OC)c(Cl)c1", "note": "(stereo unspecified)", "outcome": "inactive [at 5.79 µM]"}
{"smiles": "O=C(c1ccc(Br)o1)N1CCN(C2CCN(Cc3ccccn3)C2=O)CC1", "note": "(stereo unspecified)", "Potency": "inconclusive: 8.91 µM [inhibitor, partial curve, poor fit]"}
{"smiles": "O=C1[C@@H]2C[C@@H](CN2C(=O)c2cncnc2)Oc2ccccc2N1Cc1ccccn1", "Potency": "inactive"}
{"smiles": "CCCCNC(=O)C1CCC(Cn2c(=O)c3sccc3n(CC(=O)Nc3ccccc3)c2=O)CC1", "note": "(stereo unspecified)", "Potency": "inconclusive: 12.6 µM [inhibitor, single point]"}
{"smiles": "O=C(NCc1cccc(F)c1)c1ccc2nccn2c1", "Potency": "inactive"}
{"smiles": "CCOC(=O)c1c(C)oc2ccc(N(C(C)=O)S(=O)(=O)c3c(C)cc(C)cc3C)cc12", "Potency": "inactive"}
{"smiles": "COC1CCN(c2cc(-c3ccsc3)nc3c(C)noc23)CC1", "Potency": "inconclusive: 15.8 µM [inhibitor, partial curve, poor fit]"}
{"smiles": "O=C(c1ccc(F)cc1)N1CCC2(CC1)CCN(Cc1cccs1)c1ccccc1O2", "Potency": "inconclusive: 14.1 µM [inhibitor, partial curve, poor fit]"}
{"smiles": "Cc1cc(N2CCN(c3cc(Cl)ccc3C)CC2)n2nc(-c3ccccc3)nc2n1", "activity, negative = inhibition": "inconclusive: -164% [inhibitor] [at 5.79 µM]"}
{"smiles": "Cc1ccccc1-c1cc(-c2ccc(=O)[nH]c2)c2cncn2c1", "Potency": "inconclusive: 3.16 µM [inhibitor, single point]"}
{"smiles": "COc1ccc(CCNC(=O)C2c3ccccc3C(=O)N2Cc2ccccc2)cc1OC", "note": "(stereo unspecified)", "Potency": "inconclusive: 15.8 µM [inhibitor, single point]"}
{"smiles": "COc1cc2c(cc1Oc1ccccc1)NC(=O)C21CCN(c2nc(C)cc(C)n2)CC1", "Potency": "inconclusive: 0.398 µM [inhibitor, full curve, poor fit]"}
{"smiles": "CN(C)C(=O)c1nc(-c2ccc(F)cc2)c2cnccn12", "Potency": "inconclusive: 3.98 µM [inhibitor, full curve, poor fit]"}
{"smiles": "COc1cccc(NC(=O)Cn2c(=O)n(Cc3ccc(C(=O)NCc4ccc(C)cc4)cc3)c(=O)c3ccccc32)c1", "Potency": "inactive"}
{"smiles": "CN1[C@@H](CCC(=O)NCc2ccccc2)CNC(=O)[C@@H]2[C@H]1CCN2Cc1cccc(Cl)c1", "Potency": "inconclusive: 1.41 µM [inhibitor, partial curve]"}
{"smiles": "CCOc1ccc(Cn2c(CNS(=O)(=O)c3ccc(C(C)(C)C)cc3)nc3cccnc32)cc1", "Potency": "inconclusive: 11.2 µM [inhibitor, single point]"}
{"smiles": "Cc1ccc(-c2cc(O)c3c(c2)CNCCO3)s1", "Potency": "inconclusive: 17.8 µM [inhibitor, single point]"}
{"smiles": "COCC(=O)NCc1cc2n(n1)CCCN(Cc1cc3ccccc3s1)C2", "Potency": "inactive"}
{"smiles": "Cc1ccc2c(=O)c(C(=O)c3ccc(Cl)cc3)cn(CC(=O)Nc3ccc4c(c3)OCCO4)c2n1", "Potency": "inconclusive: 2.24 µM [inhibitor, partial curve, poor fit]"}
{"smiles": "Cc1cccc(C(=O)NCc2nc3ccccc3n2Cc2ccccc2Cl)c1", "Potency": "inconclusive: 17.8 µM [inhibitor, single point]"}
{"smiles": "CCOc1ccccc1CNC(=O)c1oc2c(c1C)-c1nn(Cc3cccc(Cl)c3)cc1CC2", "Potency": "inconclusive: 0.708 µM [inhibitor, full curve, poor fit]"}
{"smiles": "Cn1cccc1CN1CCC2(COc3ccncc3[S+](=O)([O-])N2)C1", "note": "(stereo unspecified)", "activity, negative = inhibition": "inconclusive: -45.1% [inhibitor]"}
{"smiles": "COc1ccc(CNC[C@H]2C[C@@H]3CCN2C[C@@H]3c2cc(-c3ccc4ccccc4c3)nn2C)cc1", "Potency": "inconclusive: 17.8 µM [inhibitor, single point]"}
{"smiles": "CCc1ccccc1NC(=O)c1ccc(F)c(S(=O)(=O)N2CCN(c3ccccc3OC)CC2)c1", "Potency": "inactive"}
{"smiles": "CC(C)N1C(=O)C(CC(=O)NCCCN2CCc3ccccc3C2)=C2CCCCC21", "note": "(stereo unspecified)", "Potency": "inconclusive: 10 µM [inhibitor, single point]"}
{"smiles": "COc1cc([C@@H]2Nc3c(F)cccc3[C@@H]3C=CC[C@@H]32)cc(Br)c1OC", "Potency": "inconclusive: 8.91 µM [inhibitor, single point]"}
{"smiles": "Cc1c(C(=O)NCc2ccc(Cl)cc2)sc2nc3n(c(=O)c12)CCC3", "Potency": "inconclusive: 20 µM [inhibitor, partial curve, poor fit]"}
{"smiles": "Cc1ncsc1CN1CCCC(n2c(C)cnc2-c2cccnc2)C1", "note": "(stereo unspecified)", "Potency": "inactive"}
{"smiles": "COc1ccc(C)cc1NC(=O)C1N(C(C)C)C(=O)C12CCCC2", "note": "(stereo unspecified)", "Potency": "inactive"}
{"smiles": "O=C1CCN(C(=O)Nc2ccccc2)CCCC(c2nc(-c3cccnc3)no2)CCN1", "note": "(stereo unspecified)", "Potency": "inactive"}
{"smiles": "Cc1nc2cccnc2n1CC1CCCN(S(=O)(=O)c2ccc(C(F)(F)F)cc2)C1", "note": "(stereo unspecified)", "Potency": "inconclusive: 7.94 µM [inhibitor, partial curve, poor fit]"}
{"smiles": "Cc1sc2cc(C(=O)NCC3CC3)[nH]c2c1CN1CCCCC1", "Potency": "inconclusive: 20 µM [inhibitor, single point]"}
{"smiles": "Cc1ccc(C(=O)Nc2ccc(S(=O)(=O)N(Cc3ccccc3)c3ccccc3)cc2)cc1", "Potency": "inactive"}
{"smiles": "Cc1ccccc1CC(=O)N1CCCC(c2noc(COc3ccccc3)n2)C1", "note": "(stereo unspecified)", "Potency": "inconclusive: 10 µM [inhibitor, single point]"}
{"smiles": "O=S(=O)(c1ccc(Cl)cc1)c1nc(-c2ccccc2F)oc1NCc1ccccc1", "Potency": "inactive"}
{"smiles": "O=C(C1CC1)N1CCOc2ccc(CN3CCCC3)cc2C1", "Potency": "inconclusive: 10 µM [inhibitor, single point]"}
{"smiles": "CCc1ccc(C(=O)N2CCc3[nH]nc(C(=O)N(C)C)c3C2)cc1", "Potency": "inconclusive: 12.6 µM [inhibitor, single point]"}
{"smiles": "Cc1cnc(C2CC2)n1CCNC(=O)Cn1c(=O)oc2cc(Cl)ccc21", "Potency": "inconclusive: 20 µM [inhibitor, partial curve, poor fit]"}
{"smiles": "O=C(Nc1nc2c(F)cccc2s1)c1ccc2c(c1)OCCO2", "Potency": "inconclusive: 17.8 µM [inhibitor, single point]"}
{"smiles": "Cc1ccc(C(=O)N2CCC3(CC2)CCN(CCc2ccccc2)c2ccccc2O3)cc1", "Potency": "active: 11.2 µM"}
{"smiles": "Clc1cnccc1CN1CC(CNc2ccccc2)C2(C1)CN(c1ccccc1)C2", "note": "(stereo unspecified)", "Potency": "inconclusive: 1.58 µM [inhibitor, full curve, poor fit]"}
{"smiles": "COc1cc2c(cc1OCc1ccccc1)NC(=O)C21CCN(c2ccnc(C)n2)CC1", "Potency": "inconclusive: 3.55 µM [inhibitor, partial curve, poor fit]"}
{"smiles": "COc1ccc(NC(=O)Cn2cccc2-c2nc(-c3ccc(F)cc3)no2)cc1", "Potency": "active: 2.51 µM"}
{"smiles": "O=C(c1ccco1)N1CCC[C@H](n2c(=O)n(CC3CC3)c3cccnc32)C1", "Potency": "inactive"}
{"smiles": "O=C(Cn1cccc1-c1nc(-c2ccc3c(c2)OCO3)no1)Nc1ccc(F)cc1", "Potency": "inconclusive: 10 µM [inhibitor, partial curve]"}
{"smiles": "Cc1cccc(CCNC(=O)c2coc(COc3cccc(F)c3F)n2)n1", "Potency": "inconclusive: 17.8 µM [inhibitor, single point]"}
{"smiles": "Cc1ccc(NC(=O)Cn2nc3n(c2=O)CCCCC3)cc1", "Potency": "inactive"}
{"smiles": "O=C(COc1ccc(Cl)cc1)NC1CCc2n[nH]c(=O)n2CC1", "note": "(stereo unspecified)", "Potency": "inconclusive: 2.51 µM [inhibitor, partial curve, poor fit]"}
{"smiles": "COc1ccc(CN2Cc3cc(NC(=O)c4ccccc4F)ccc3OC(C)C2=O)c(OC)c1", "note": "(stereo unspecified)", "Potency": "active: 3.16 µM"}
{"smiles": "COc1ccc2c(CNCc3cccs3)c(C(=O)O)n(Cc3ccccc3C)c2c1", "Potency": "inconclusive: 11.2 µM [inhibitor, partial curve]"}
{"smiles": "COc1cc(OC)c(N(C)C(=O)c2cc3c(s2)-c2ccccc2OC3)cc1Cl", "Potency": "active: 8.91 µM"}
{"smiles": "CCN1c2cc(C(=O)Nc3ccc(Br)cc3)ccc2C(=O)N2CCCCC21", "note": "(stereo unspecified)", "Potency": "inconclusive: 11.2 µM [inhibitor, partial curve, poor fit]"}
{"smiles": "CC(C)(C)CN1CCOC[C@H]1c1ncc(-c2ccc(Cl)s2)[nH]1", "Potency": "inconclusive: 7.08 µM [inhibitor, partial curve, poor fit]"}
{"smiles": "COc1ccc(C(=O)N2CCC3(CC2)C(OC)C(=O)N3c2cccc(F)c2)c(OC)c1", "note": "(stereo unspecified)", "Potency": "inconclusive: 17.8 µM [inhibitor, single point]"}
{"smiles": "c1ccc(COC2CCN(c3nccc(-c4cccnc4)n3)CC2)nc1", "Potency": "inconclusive: 12.6 µM [inhibitor, single point]"}
{"smiles": "Cc1ccc(S(=O)(=O)N(CC(O)Cn2c3ccccc3c3ccccc32)c2cccc(C(=O)NCCO)c2)cc1", "note": "(stereo unspecified)", "Potency": "inconclusive: 11.2 µM [inhibitor, partial curve]"}
{"smiles": "CC(=O)Nc1ccc(CN2CCC3(CC2)CC(=O)c2ccccc2O3)cc1", "Potency": "inactive"}
{"smiles": "O=C(CSc1nc2c([nH]c3ccccc32)c(=O)n1-c1ccc(F)cc1)Nc1ccc2c(c1)OCCO2", "Potency": "inconclusive: 17.8 µM [inhibitor, single point]"}
{"smiles": "Cn1nc(-c2ccccc2F)c2cc(C(=O)N3CCN(c4ccccc4F)CC3)sc21", "Potency": "inactive"}
{"smiles": "Fc1ccc(-c2cnc([C@@H]3COCCN3C3CCC3)[nH]2)cc1", "Potency": "inactive"}
{"smiles": "COc1ccc(C)cc1NC(=O)C1CCN(C(=O)N2CC3CC(C2)[C@H]2CCCC(=O)N2C3)CC1", "note": "(stereo partly specified)", "Potency": "inactive"}
